# Assay results: the supplement of paper PMC8728848
# The list shows a part of the results.
# B1: PX14343A-bvu-539-29-539 (Bacteroides vulgatus) (protein)
# chain: DSLTESSSNTFWQTPDDALMALASCYDALQSNQLYNSDQYSLGPLYMDCISDNGGHFNWSGWMEGYDMAMGIHTPSSSIIGSYWKDCYEVISRCNVLIANIDRVDMDASQKAIYQAEAKTIRALMYINLTMTYQDVPFLTAPLTIDEAECEKTDRAAIVAHVMTDLQDAAEVLPQNASSRGHITKGAALSLLGRVALYNEKWDDAIAAYKQVQGLGYSLDPSYAKLFTQSGETSPEIIFAVRYEGPGMSEGAAFNAHWNTPLEAMNGTIDLADAYYCKDGKPTTDTKIAELNGGGGLDVSKPNPAHFENRDPRLYSTLFVPGMLWNGKGGIDTSASNPYANVYGGAAASLSTVYVYKYFDPTDTSNSWDNGQDFYVVRYAEVLLSLAEAMVQKGGYVYSDVTALVNEVRQRADVNMPTVEEVEGTSLSKDELLEVIKHERRVELAFEGLRLFDLYRWKELDKAVANIENERTMYGLAYEARKFNGERDYVWPLPTAELDTNKKLVQHDLWK
# Experiments:
# Test in all cases: glycan array binding signal (z-score within array); higher = stronger binding
# Details in all cases: glycan notation: IUPAC condensed, linker removed
# [1] = target: Gal(b1-4)GlcNAc(b1-2)Man(a1-3)[Gal(b1-4)GlcNAc(b1-2)Man(a1-6)]Man(b1-4)GlcNAc(b1-4)[Fuc(a1-6)]GlcNAc
# In short: (§1)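 Glycan array binding is given as a within-array Z-score, which can be read as non-binding when negative. The arrays, 3228 of them, came from the Consortium for Functional Glycomics database and were retained only where the protein sequence was available. Z-scores were averaged across arrays of the same protein sequence at different concentrations or buffers and across linkers.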
# [2] = target: Gal(b1-4)GlcNAc(b1-2)Man(a1-3)[Gal(b1-4)GlcNAc(b1-2)Man(a1-6)][Gal(b1-4)GlcNAc(b1-4)]Man(b1-4)GlcNAc(b1-4)[Fuc(a1-6)]GlcNAc
# In short: as §1
# [3] = target: Gal(b1-4)GlcNAc(b1-2)Man(a1-3)[Gal(b1-4)GlcNAc(b1-2)Man(a1-6)][GlcNAc(b1-4)]Man(b1-4)GlcNAc(b1-4)[Fuc(a1-6)]GlcNAc
# In short: as §1
# [4] = target: Gal(b1-4)GlcNAc(b1-2)Man(a1-3)[GlcNAc(b1-2)Man(a1-6)]Man(b1-4)GlcNAc(b1-4)GlcNAc
# In short: as §1
# [5] = target: Gal(b1-4)GlcNAc(b1-2)Man(a1-3)[GlcNAc(b1-4)][Gal(b1-4)GlcNAc(b1-2)Man(a1-6)]Man(b1-4)GlcNAc(b1-4)GlcNAc
# In short: as §1
# [6] = target: Gal(b1-4)GlcNAc(b1-2)Man(a1-3)[Man(a1-6)]Man(b1-4)GlcNAc(b1-4)GlcNAc
# In short: as §1
# [7] = target: Gal(b1-4)GlcNAc(b1-2)Man(a1-6)Man(b1-4)GlcNAc(b1-4)GlcNAc
# In short: as §1
# [8] = target: Gal(b1-4)GlcNAc(b1-2)Man(a1-6)[GlcNAc(b1-2)Man(a1-3)]Man(b1-4)GlcNAc(b1-4)GlcNAc
# In short: as §1
# [9] = target: Gal(b1-4)GlcNAc(b1-2)Man(a1-6)[Man(a1-3)]Man(b1-4)GlcNAc(b1-4)GlcNAc
# In short: as §1
# [10] = target: Gal(b1-4)GlcNAc(b1-2)[Gal(b1-4)GlcNAc(b1-4)]Man(a1-3)[Gal(b1-4)GlcNAc(b1-2)Man(a1-6)]Man(b1-4)GlcNAc(b1-4)GlcNAc
# In short: as §1
# [11] = target: Gal(b1-4)GlcNAc(b1-2)[Gal(b1-4)GlcNAc(b1-4)]Man(a1-3)[Gal(b1-4)GlcNAc(b1-2)[Gal(b1-4)GlcNAc(b1-6)]Man(a1-6)]Man(b1-4)GlcNAc(b1-4)GlcNAc
# In short: as §1
# [12] = target: Gal(b1-4)GlcNAc(b1-2)[Gal(b1-4)GlcNAc(b1-4)]Man(a1-3)[GlcNAc(b1-4)][Gal(b1-4)GlcNAc(b1-2)Man(a1-6)]Man(b1-4)GlcNAc(b1-4)GlcNAc
# In short: as §1
# [13] = target: Gal(b1-4)GlcNAc(b1-2)[Gal(b1-4)GlcNAc(b1-4)]Man(a1-3)[GlcNAc(b1-4)][Gal(b1-4)GlcNAc(b1-2)[Gal(b1-4)GlcNAc(b1-6)]Man(a1-6)]Man(b1-4)GlcNAc(b1-4)GlcNAc
# In short: as §1
# [14] = target: Gal(b1-4)GlcNAc(b1-2)[Gal(b1-4)GlcNAc(b1-6)]Man(a1-6)[Gal(b1-4)GlcNAc(b1-2)Man(a1-3)]Man(b1-4)GlcNAc(b1-4)GlcNAc
# In short: as §1
# [15] = target: Gal(b1-4)GlcNAc(b1-2)[Gal(b1-4)GlcNAc(b1-6)]Man(a1-6)[Gal(b1-4)GlcNAc(b1-2)Man(a1-3)]Man(b1-4)GlcNAc(b1-4)[Fuc(a1-6)]GlcNAc
# In short: as §1
# [16] = target: Gal(b1-4)GlcNAc(b1-2)[Gal(b1-4)GlcNAc(b1-6)]Man(a1-6)[GlcNAc(b1-4)][Gal(b1-4)GlcNAc(b1-2)Man(a1-3)]Man(b1-4)GlcNAc(b1-4)GlcNAc
# In short: as §1
# [17] = target: Gal(b1-4)GlcNAc(b1-2)[Gal(b1-4)GlcNAc(b1-6)]Man(a1-6)[GlcNAc(b1-4)][Gal(b1-4)GlcNAc(b1-2)[Gal(b1-4)GlcNAc(b1-4)]Man(a1-3)]Man(b1-4)GlcNAc(b1-4)[Fuc(a1-6)]GlcNAc
# In short: as §1
# [18] = target: Gal(b1-4)GlcNAc(b1-3)Gal(b1-3)GalNAc
# In short: as §1
# [19] = target: Gal(b1-4)GlcNAc(b1-3)Gal(b1-3)GlcNAc
# In short: as §1
binder,measurement,setting,value
B1,glycan array binding signal (z-score),[1],1.39
same,glycan array binding signal (z-score),[2],0.204
same,glycan array binding signal (z-score),[3],-0.362
same,glycan array binding signal (z-score),[4],-0.16
same,glycan array binding signal (z-score),[5],-0.124
same,glycan array binding signal (z-score),[6],-0.02
same,glycan array binding signal (z-score),[7],-0.225
same,glycan array binding signal (z-score),[8],-0.116
same,glycan array binding signal (z-score),[9],0.476
same,glycan array binding signal (z-score),[10],-0.195
same,glycan array binding signal (z-score),[11],-0.34
same,glycan array binding signal (z-score),[12],-0.094
same,glycan array binding signal (z-score),[13],0.474
same,glycan array binding signal (z-score),[14],-0.132
same,glycan array binding signal (z-score),[15],0.017
same,glycan array binding signal (z-score),[16],-0.018
same,glycan array binding signal (z-score),[17],0.087
same,glycan array binding signal (z-score),[18],-0.161
same,glycan array binding signal (z-score),[19],-0.239
